# Reference: publication PMC4336329 (PLoS ONE, 2015)
# About 14,000 (4.5%) of roughly 310,000 compounds showed an effect of 50% or more. Effects have a minus sign here. This is one part of the list.
# Biological target: human ether-à-go-go-related gene (hERG) potassium channel (human, UniProt Q12809)
# Experiment: primary screen, population patch clamp on CHO cells stably expressing hERG
# 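Note: peak tail current of the secondary pulse compared with the same well before compound.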
# Sequence of human ether-à-go-go-related gene (hERG) potassium channel (Q12809 whole entry, looked up): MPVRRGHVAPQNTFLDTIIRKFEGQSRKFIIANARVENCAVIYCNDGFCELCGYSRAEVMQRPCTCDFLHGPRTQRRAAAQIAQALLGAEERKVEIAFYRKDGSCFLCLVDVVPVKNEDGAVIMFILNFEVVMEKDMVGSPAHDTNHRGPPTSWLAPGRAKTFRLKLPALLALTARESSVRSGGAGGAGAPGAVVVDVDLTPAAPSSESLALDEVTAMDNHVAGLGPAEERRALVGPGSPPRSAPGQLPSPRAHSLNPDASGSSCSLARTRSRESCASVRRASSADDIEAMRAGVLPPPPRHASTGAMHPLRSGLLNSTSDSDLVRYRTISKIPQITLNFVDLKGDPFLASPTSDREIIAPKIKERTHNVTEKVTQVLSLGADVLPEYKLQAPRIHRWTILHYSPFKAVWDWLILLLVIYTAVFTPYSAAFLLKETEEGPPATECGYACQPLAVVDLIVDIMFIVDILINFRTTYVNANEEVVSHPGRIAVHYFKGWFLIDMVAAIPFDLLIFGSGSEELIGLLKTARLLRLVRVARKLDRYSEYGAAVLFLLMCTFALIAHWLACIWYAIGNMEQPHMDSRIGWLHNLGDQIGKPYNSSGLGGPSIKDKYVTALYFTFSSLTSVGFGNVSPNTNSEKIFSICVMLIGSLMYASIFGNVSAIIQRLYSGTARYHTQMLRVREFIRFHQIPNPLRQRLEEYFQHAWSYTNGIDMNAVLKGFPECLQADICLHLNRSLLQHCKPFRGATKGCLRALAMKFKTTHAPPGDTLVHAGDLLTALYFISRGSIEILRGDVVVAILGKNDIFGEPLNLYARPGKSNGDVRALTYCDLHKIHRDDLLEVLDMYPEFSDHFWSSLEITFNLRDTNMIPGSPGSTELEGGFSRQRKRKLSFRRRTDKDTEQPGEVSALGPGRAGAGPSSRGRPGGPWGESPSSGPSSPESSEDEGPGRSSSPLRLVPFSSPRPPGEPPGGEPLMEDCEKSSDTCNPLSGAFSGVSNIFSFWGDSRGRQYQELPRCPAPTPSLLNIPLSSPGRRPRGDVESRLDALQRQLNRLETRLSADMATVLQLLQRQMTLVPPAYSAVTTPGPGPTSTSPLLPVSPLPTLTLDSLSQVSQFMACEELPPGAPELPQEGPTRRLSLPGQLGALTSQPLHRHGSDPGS
row,SMILES,"hERG current change (%, negative = inhibition) at 10uM"
1,Cc1cn(C2OC(COC(=O)c3ccccc3)C(O)C2O)c(=O)[nH]c1=O (centres unmarked),16.4%
2,COCCCN1C(=O)c2ccc(C(=O)Nc3ccccc3Cl)cc2C1=O,2.92%
3,COC(=O)C1C(O)=CC(=O)CC1C (centres unmarked),5.81%
4,O=C1c2ccccc2S(=O)(=O)c2cc(C(=O)N3CCN(c4ccc(Cl)cn4)CC3)ccc21,-33.1%
5,Cc1ccc(S(=O)(=O)N/N=C\c2ccc3c(c2)OCO3)cc1,19.5%
6,Nc1cc(C(F)(F)F)cc2c1SCC(=O)N2,22.5%
7,CCOC(=O)c1cc(CC)sc1NC(=O)c1cccc(N2C(=O)CCC2=O)c1,-25.6%
8,C=CCn1c(CSCc2ccc(Cl)cc2Cl)nnc1SCC(=O)Nc1ccc(C(=O)O)cc1,6.02%
9,Nc1ccccc1Oc1ccc2ccccc2c1,-7.4%
10,COc1ccc(S(=O)(=O)c2cnc3ccc(OC)cc3c2N2CCC3(CC2)OCCO3)cc1,-28.5%
11,Cc1cc(C)n2nc(C(=O)OCC(=O)NNC(=O)c3ccccc3)nc2n1,1.34%
12,CC1CCN(S(=O)(=O)N2CCC(C(=O)NCc3cccnc3)CC2)CC1,-26.2%
13,CC1CCCC(NC(=O)COC(=O)Cc2ccccc2)C1C (centres unmarked),-5.31%
14,CCN1CCN(c2nc(Nc3cccc(C)c3)nc(N)c2[N+](=O)[O-])CC1,-70.2%
15,COc1cccc(C(=O)NC2(C(F)(F)F)N=C3SCCN3C2=O)c1 (centres unmarked),15.3%
16,Cc1ccc(-c2nnn(CC(=O)NCC3COCCO3)n2)o1 (centres unmarked),13%
17,COc1ccc(/C=N/NC(=O)c2cc[n+]([O-])cc2)cc1O,5.39%
18,O=C(OCC(=O)N(C1CCCCC1)C1CCCCC1)c1ccc(O)cc1,18.6%
19,COc1cccc(OC)c1C(=O)NC(=O)Nc1c(F)c(F)c(F)c(F)c1F,10.1%
20,O=C(O)CN1C(=O)Nc2ccc(Br)cc2C1c1ccccc1 (centres unmarked),-3.51%
21,COc1ccccc1NC(=O)c1nn(-c2ccc(Cl)cc2)ccc1=O,0.277%
22,COC12NC(=O)N(C)C1(OC)C(=O)N(C)C(=O)N2C (centres unmarked),8.11%
23,Cc1cccc(C(=O)Nc2sc3c(c2C#N)CCCCC3)c1,16.5%

row,SMILES,"hERG current change (%, negative = inhibition) at 10uM"
1,Cc1ccc(NC(=O)CC(NC(=O)c2ccccc2Cl)c2ccccc2)nc1 (centres unmarked),5.3%
2,CC(Oc1ccc(F)cc1)C(=O)Nc1ccc2ccccc2c1 (centres unmarked),13.1%
3,NC(=O)Cc1nc2scc(-c3ccccc3)c2c(=O)[nH]1,37.9%
4,O=C(Nc1ccc2c(c1)OCO2)c1ccc(N2C(=O)c3ccccc3C2=O)cc1,-5.61%
5,O=C(Cn1nc(-c2ccc3c(c2)OCCO3)ccc1=O)Nc1ccc(N2CCOCC2)cc1,5.41%
6,CCN(CC)C(=O)CSc1nnc(-n2nc(C)cc2C)c2ccccc12,-6.11%
7,O=C(c1cc2nc(-c3ccccc3)cc(C(F)(F)F)n2n1)N1CCOCC1,-29.3%
8,O=C(Cc1ccccc1)NNC(=S)Nc1ccc(Cl)cc1,12%
9,C(=C\c1ccco1)/C=N/n1cnnc1,5.46%
10,Nc1ccc(C(=O)Nc2ccco2)cc1,8.93%
11,CCCn1c(=O)c2[nH]cnc2n(-c2ccc(Cl)cc2)c1=O,6.53%
12,CCOC(=O)N1CCN(C(c2cccnc2)c2ccc3cccnc3c2O)CC1 (centres unmarked),-0.699%
13,Cn1c(SCC#N)nnc1-c1ccc2c(c1)OCO2,16.9%
14,CCOC(=O)C1(CCc2ccccc2)CCN(C(=O)CCn2cncn2)CC1,-63.2%
15,Oc1ccc(-c2onc(C(F)(F)F)c2-c2cscn2)c(O)c1,2.08%
16,Cc1c(C(=O)O)nn(-c2ccccc2)c(=O)c1C#N,4.41%
17,CCOc1ccc(CCNC(=O)c2oc3c(c2C)-c2[nH]ncc2CC3)cc1OCC,0.241%
18,C=CCn1c(O)c(C(C)=NCc2ccc3c(c2)OCO3)c(=O)[nH]c1=O,-8.17%
19,CCN1C(=O)C2(Nc3ccccc3-c3nc4ccccc4n32)c2cc(OC)ccc21 (centres unmarked),-4.35%
20,Cc1nnc(SCC2=C(C(=O)O)N3C(=O)[C@@H](NC(=O)Cn4cnnn4)[C@H]3SC2)s1,2.9%
21,COc1ccc(CCNC(=O)c2cnn3c(C(F)F)cc(C)nc23)cc1OC,-4.22%
22,Nc1cc(S(=O)(=O)N2CCOCC2)ccc1Oc1ccc(F)cc1,-3.51%
23,O=C(O)CCC(=O)Nc1cc(C(F)(F)F)cc(C(F)(F)F)c1,15.1%

row,SMILES,"hERG current change (%, negative = inhibition) at 10uM"
1,CC(NC(=O)C(=O)c1cn(CC(=O)N2CCOCC2)c2ccccc12)c1ccccc1 (centres unmarked),4.56%
2,O=C(/C=C/c1cccc([N+](=O)[O-])c1)OC1CCCCC1=O (centres unmarked),7.17%
3,Cl.N[C@@H](Cc1c[nH]c2ccccc12)c1nnc(SCc2ccccc2)o1,-3.63%
4,CCc1ccccc1NC(=O)COc1cccc2ccc(C)nc12,-35.3%
5,FC(F)(F)c1cccc(-c2ccc(/C=N/Nc3nncc(-c4ccccc4)n3)o2)c1,-12.8%
6,CCCc1nc(SCC(=O)N2CCC(C)CC2)c2c(=O)n(C)c(=O)n(C)c2n1,-38.2%
7,Cc1cccc(OCC(=O)Nc2ccc(S(=O)(=O)Nc3onc(C)c3C)cc2)c1C,13.3%
8,Nc1c2c(nc3sc4c(c13)CCCC4)CCCC2,-70.4%
9,O=C(CCl)NN1C(=O)NC2(CCCCC2)C1=O,9.35%
10,Cl.O=C(CN1CCN(c2ncccn2)CC1)Nc1ccccc1-n1cccc1,-14.2%
11,O=C(CCC(=O)OCc1ccc(Br)cc1)Nc1ccccc1,8.45%
12,N/C(Cc1nc(-c2ccc(F)cc2)cs1)=N\O,13.7%
13,O=S(=O)(NOCc1ccc(Cl)cc1)c1ccc(Cl)cc1,17.5%
14,Cc1c(NC(=O)c2ccc(Cl)nc2)cccc1-c1nc2cccnc2s1,-48.1%
15,COCCNC(=O)c1c(NC(=O)c2nc(SC)ncc2Cl)sc2c1CCCC2,20.4%
16,CC1CCCN(C2(O)C(=O)Nc3ccc([N+](=O)[O-])cc32)C1 (centres unmarked),0.385%
17,O=C(COC(=O)C1COc2ccccc2O1)Nc1cccc(F)c1 (centres unmarked),-17.9%
18,COc1ccc(NC(=O)c2cc(-c3cc(OC)c(OC)c(OC)c3)nc3ccccc23)c(OC)c1,20.2%
19,COc1ccccc1CNC(=O)C1CCC(CNS(=O)(=O)c2ccccc2)CC1 (centres unmarked),9.7%
20,CCCNC(=O)c1ccc(N2CCC3(CC2)CC(c2ccccc2)=NO3)c(NC(=O)c2cccc(C)c2)c1,-18.6%
21,Cc1cccc(NC(=O)COC(=O)CSc2ccccc2)c1C,1.87%
22,CCOC(=O)c1c(NC(=O)c2ccc(S(=O)(=O)N3CCOCC3)cc2)sc2c1CCN(C)C2,-27.4%
23,CCOc1ccc(-n2cc(-c3ccccc3)c3c(N4CCOCC4)ncnc32)cc1,9.17%

row,SMILES,"hERG current change (%, negative = inhibition) at 10uM"
1,CC(=O)Nc1ccc(C(=O)OCC(=O)NCc2ccc(Cl)cc2)cc1,38.3%
2,COc1ccc(C(=O)NCC(=O)OCC(=O)NC2CCCC2)cc1,16.1%
3,O=C(O)CCC(=O)Nc1ccc(N2CCCCC2)c(C(=O)O)c1,11.5%
4,COc1ccc(-c2cc(C(F)(F)F)nc(NCc3cccs3)n2)cc1,-13.6%
5,Cc1cccc(/C=N/NC(=O)NC23CC4CC(CC(C4)C2)C3)n1,2%
6,COc1ccc(CNC(=O)c2sccc2-c2ccccc2)cc1OC,7.89%
7,Cc1ccc(-n2cc(CNCCc3cscn3)c(-c3ccc(F)cc3)n2)cc1,-59%
8,Cc1ccc(CNC(=O)COC(=O)CSc2cc(C)c(Br)cc2C)cc1,3.11%
9,CC(=O)Nc1ccc(S(=O)(=O)NCCCc2ccccc2)cc1,5.64%
10,COC(=O)N/N=C/c1cc(Cl)cc(Cl)c1OCc1ccccc1,17.2%
11,Fc1ccccc1-n1cn[nH]c1=S,30.6%
12,CCCNc1nc2c(c(=O)n(C)c(=O)n2C)n1Cc1cccc(C)c1,-20.6%
13,COc1ccc(NC(=O)CN(C)CC(=O)NC2CCC(C)CC2)cc1 (centres unmarked),0.408%
14,O=C1N=c2ccccc2=C1c1[nH]c(=S)[nH]c1O,14.7%
15,CN(C)S(=O)(=O)c1cccc(C(=O)C2=C3SC=C(c4ccccc4)N3CC2)c1,-10.1%
16,CCOC(=O)c1c(C)nc2c(c1C)c(=O)oc1ccccc12,-1.92%
17,CN1c2ccccc2C2(C)CCCC3=Cc4cc([N+](=O)[O-])cc([N+](=O)[O-])c4OC312 (centres unmarked),1.85%
18,CC(C)N(Cc1c(O)ccc2c(=O)c(-c3ccc(Cl)cc3)coc12)C(C)C,-28.2%
19,CC(=O)Nc1ccc(NC(=O)c2cc(C)nn2-c2ccccc2)cc1,4.8%
20,COCCN(C(=O)/C=C/c1ccccc1)c1nnc(-c2cccnc2)s1,-9.61%
